According to publication PMC4336329 (PLoS ONE, 2015):
Screen size: about 310,000 compounds; about 2,200 (0.71%) showed an effect of 50% or more. The effect is printed as a negative number. The list shows a part of the results.

Target: human ether-à-go-go-related gene (hERG) potassium channel (human, UniProt Q12809)
Experiment: primary screen, population patch clamp on CHO cells stably expressing hERG

Chain of human ether-à-go-go-related gene (hERG) potassium channel (Q12809 whole entry, looked up): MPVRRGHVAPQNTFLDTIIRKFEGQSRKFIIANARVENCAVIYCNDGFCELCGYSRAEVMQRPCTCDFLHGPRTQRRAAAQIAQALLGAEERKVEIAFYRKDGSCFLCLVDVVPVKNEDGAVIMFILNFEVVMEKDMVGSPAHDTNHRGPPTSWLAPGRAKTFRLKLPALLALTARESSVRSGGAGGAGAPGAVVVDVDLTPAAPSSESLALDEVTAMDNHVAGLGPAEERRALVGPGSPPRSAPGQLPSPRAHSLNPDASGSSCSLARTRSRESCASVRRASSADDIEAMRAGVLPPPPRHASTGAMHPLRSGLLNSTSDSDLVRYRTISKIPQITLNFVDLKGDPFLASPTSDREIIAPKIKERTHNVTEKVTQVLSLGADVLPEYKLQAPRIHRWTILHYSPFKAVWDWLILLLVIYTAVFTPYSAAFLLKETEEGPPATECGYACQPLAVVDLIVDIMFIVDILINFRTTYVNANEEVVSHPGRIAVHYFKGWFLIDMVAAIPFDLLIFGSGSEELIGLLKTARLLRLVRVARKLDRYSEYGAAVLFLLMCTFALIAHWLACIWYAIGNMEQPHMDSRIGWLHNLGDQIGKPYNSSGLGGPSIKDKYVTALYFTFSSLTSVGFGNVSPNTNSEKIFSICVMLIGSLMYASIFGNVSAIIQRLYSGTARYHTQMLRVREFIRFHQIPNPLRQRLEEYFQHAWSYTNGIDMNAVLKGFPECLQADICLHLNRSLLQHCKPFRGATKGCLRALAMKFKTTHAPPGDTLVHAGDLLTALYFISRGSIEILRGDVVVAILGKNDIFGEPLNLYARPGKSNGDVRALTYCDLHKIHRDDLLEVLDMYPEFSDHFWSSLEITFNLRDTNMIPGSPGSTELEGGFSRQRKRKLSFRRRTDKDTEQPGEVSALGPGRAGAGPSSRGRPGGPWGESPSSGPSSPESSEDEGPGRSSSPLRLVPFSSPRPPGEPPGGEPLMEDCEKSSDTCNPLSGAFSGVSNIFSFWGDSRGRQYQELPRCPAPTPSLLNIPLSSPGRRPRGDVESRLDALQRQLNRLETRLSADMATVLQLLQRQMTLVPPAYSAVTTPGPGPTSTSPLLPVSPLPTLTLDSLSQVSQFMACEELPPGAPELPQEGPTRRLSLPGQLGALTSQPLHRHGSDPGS

In order of rising “hERG current change (%, negative = inhibition) at 1uM” value:
1. COC(=O)c1ccc(OC)c(NS(=O)(=O)c2ccc(-n3cnnn3)cc2)c1  -20.6%
2. CCOc1cc(/C=N/Nc2nc(N3CCCC3)nc(N3CCCC3)n2)ccc1O  -19.3%
3. Cc1ccc(CNC(=O)CCn2cc(-c3ccc(F)cc3)nc2-c2ccncc2)cc1  -10.5%
4. CCOc1ccc(N2CC(C(=O)Oc3ccccc3)CC2=O)cc1 (stereo not shown)  -7.71%
5. CCOC(=O)N1CCN(C(=O)c2cc3c(s2)-c2ccc(Cl)cc2S(=O)(=O)C3)CC1  -5.47%
6. COc1ccc(CN2CCC(C(=O)N3CCCC(C)C3)CC2)cc1OC.O=C(O)C(=O)O (stereo not shown)  -3.23%
7. CCO[C@@H]1OC(C(=O)N2CCN(C)CC2)=C[C@H](C(C)(C)C)[C@H]1CCCO  -3.06%
8. Cc1cc(C)nc(N2CCCC(C(=O)Nc3nnc(C)s3)C2)n1 (stereo not shown)  -2.18%
9. Cc1nnc(SC(C)C(=O)NCC2CCCO2)s1 (stereo not shown)  -0.626%
10. CN1C(=S)SC(/[N+]([O-])=C\c2ccccc2F)C1(C)C (stereo not shown)  -0.308%
11. O=C(c1cccc([N+](=O)[O-])c1)N1CCN(C(=O)c2ccco2)CC1  0.101%
12. O=c1cc(CN2CCc3ccccc32)nc2sccn12  1.13%
13. CCC(=O)Nc1ccc(Cl)c(NC(=S)NC(=O)COc2ccccc2)c1  1.17%
14. CN(CC(=O)Nc1ccc(F)cc1)C(=O)CSc1ccc2c(c1)OCCO2  1.22%
15. CCN(CC)CCCNc1nc2cc(OC)c(OC)cc2c2nc(-c3ccccc3)nn12  2.16%
16. CCN(CC(=O)Nc1c(F)cccc1F)C(=O)c1cccc(S(=O)(=O)N(C)c2ccccc2)c1  2.51%
17. COC(=O)c1sccc1NC(=O)Nc1cccc([N+](=O)[O-])c1  3.03%
18. Cc1ccc(S(=O)(=O)N2CCOCC2)cc1NC(=O)C1=NN(c2ccccc2)C(=O)CC1  3.12%
19. CCN1CCC2(CC1)N=C(c1ccc(F)cc1)C(=S)N2  3.93%
20. Cc1cc(C(C)(C)C)cc(S(=O)(=O)Nc2cccc(C(=O)O)c2)c1C  3.95%
21. COC(=O)CC1=NN(c2ccc(OC)cc2)C(=O)C1  4.62%
22. O=c1c2ccccc2[nH]c(=S)n1CCN1CCN(Cc2ccccc2)CC1  4.81%
23. CC(NS(=O)(=O)c1ccc2c(c1)c(=O)n(C)c(=O)n2C)C(=O)NC1CCCCC1 (stereo not shown)  4.91%
24. O=C1CC(=O)N(c2cccc(Br)c2)C(=O)N1  5.54%
25. CCOCC(=O)Nc1ccc([N+](=O)[O-])cc1C  6.25%
26. O=S(=O)(/C=C/c1ccccc1)NCc1ccccc1Cl  6.31%
27. CN1CCN(c2ccc(NC(=O)COc3ccc(Cl)cc3Cl)cc2)CC1  6.42%
28. COc1ccc(NC(=O)CCNS(=O)(=O)c2cccc3nonc23)c(OC)c1  6.54%
29. O=C(O)CC(SCC(=O)NC1CCCc2ccccc21)C(=O)O (stereo not shown)  7.22%
30. Cc1c(CCOC(=O)c2cc([N+](=O)[O-])ccc2Cl)sc[n+]1CCCCS(=O)(=O)[O-]  7.4%
31. CC(C)Nc1nc(Cl)nc(N(C#N)CN2C(=O)c3ccccc3C2=O)n1  7.53%
32. O=C(Nc1nnc(-c2ccc(Cl)cc2)o1)c1ccccc1Br  7.85%
33. C/C(=N\Nc1ccc(Cl)c(C(=O)O)c1)c1cccs1  7.94%
34. CCSc1cnc(-c2ccccc2)n1CC.Cl  8.15%
35. COC(=O)c1nn(-c2ccc(OC)cc2)c(=O)c2c(N)sc(C)c12  8.42%
36. NC(=O)c1cc2ccncc2c2ccccc12  8.56%
37. CCCCC1C2C(=O)N(c3ccccc3)C(=O)C2ON1c1ccccc1 (stereo not shown)  8.86%
38. COc1ccc(NC(=S)NNC(=O)c2nnn(-c3ccccc3)c2C)cc1  9.14%
39. CC(=O)NC(CC(=O)Nc1cccc(S(=O)(=O)N2CCCC2)c1)c1ccccc1 (stereo not shown)  9.27%
40. CCCc1nc2ccccc2c(=O)n1NC(=O)c1c(O)c2cccc3c2n(c1=O)CCC3  9.52%
41. COc1ccc(S(N)(=O)=O)cc1C(=O)NNC(=O)CN(C)S(=O)(=O)c1ccc(Cl)cc1  9.62%
42. O=C(COc1ccc(S(=O)(=O)N2CCc3ccccc32)cc1Cl)NCc1ccccn1  9.98%
43. COc1ccc(/C=N/NC(=O)c2cccc([N+](=O)[O-])c2)cc1OC(=O)c1ccccc1  10.6%
44. CS(=O)(=O)N(CC(=O)NCCSc1ccc(Cl)cc1)c1ccc2c(c1)OCO2  10.6%
45. CCC(=O)NCCc1cc2ccc(C)cc2[nH]c1=O  10.7%
46. COc1cc(NC(=O)c2cc(C(C)C)on2)cc(OC)c1OC  10.9%
47. S=c1[nH]nc(-c2ccco2)n1-c1cccc2ccccc12  11.6%
48. Nc1cccc2c1C(=O)N(C(=O)c1ccc(Cl)c(S(=O)(=O)N3CCCCCC3)c1)C2=O  13.1%
49. Cc1onc(-c2ccccc2)c1C(=O)N1CCN(Cc2ccccc2)CC1  15.8%
50. O=S(=O)(NC1CCCCC1N1CCN(c2ccc(F)cc2)CC1)c1ccc(Cl)cc1 (stereo not shown)  16.7%
51. CCOC(=O)/C(=C\c1cn(C)c2ccccc12)[N+](=O)[O-]  17%
52. COc1ccccc1NS(=O)(=O)c1ccc(C(=O)NCC2(N(C)C)CCCCC2)cc1  17.4%
53. C=CCc1cccc(C=Nc2cccn3cc(-c4ccccc4)nc23)c1O  18%
54. Cc1cccc(NC(=O)/C(C#N)=C/c2ccccc2Cl)n1  18%
55. O=C(Cn1cnc2c(nnn2Cc2ccc(F)cc2)c1=O)NCc1ccc(F)cc1  20.7%
